Data: the RNAGym collection of RNA variant scans (doi:10.1093/nar/gkz1192)
Read counts are not given, so values of variants with three or more changes are uncertain.

B1: CPEB3 Ribozyme (parent)
chain: UAACAGGGGGCCACAGCAGAAGCGUUCACGUCGCAGCCCCUGUCAGAUUCUGGUGAAUCUGCGAAUUCUGCUGUAUAUCUC

Variants of: B1
Assay: self-cleavage, relative activity (ratio to wild type); higher = more cleavage; in vitro, sequencing
In short: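 Relative activity compares each variant's cleaved/total read fraction with that of the unmutated ribozyme. To get these fractions, barcoded CPEB3 ribozyme libraries from rounds of error-prone PCR were transcribed with T7 RNA polymerase for 5 hours at 37°C and then given 15 min of DNase I treatment before EDTA was added. The RNAs were reverse transcribed with template switching and sequenced on Illumina, and DNA sequencing linked barcodes to variants. A minimum of 5 reads applied, and three batches were averaged.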

**Q.** With A45C U51A U54G A64U A65U U72C G73A as the variant, how does the self-cleavage read?
**A.** 0.07

**Q.** With A45U U72C A75C as the variant, how does the self-cleavage read?
**A.** 0.77

**Q.** Which self-cleavage does the source give for A45G G46A U54A U67C here?
**A.** 0.34

**Q.** With U49A U58C U72C C79U as the variant, how does the self-cleavage read?
**A.** 0.25

**Q.** Which self-cleavage does the source give for U43C G61C C79U here?
**A.** 0.21

**Q.** With U43C U54A U60C as the variant, how does the self-cleavage read?
**A.** 0.15

**Q.** With U48C A65G A77G as the variant, how does the self-cleavage read?
**A.** 0.18

**Q.** Which self-cleavage does the source give for A45G U58C U60C U72C U74C A75G here?
**A.** 0.42

**Q.** For A47G U51C U69A, which self-cleavage is on record?
**A.** 0.44

**Q.** For U43C A56U A65G U69C, which self-cleavage is on record?
**A.** 0.09

**Q.** With U43C A65U U72C as the variant, how does the self-cleavage read?
**A.** 0.18

**Q.** Which self-cleavage does the source give for A45G U51A A56G here?
**A.** 0.33

**Q.** For A47U U49C U58A, which self-cleavage is on record?
**A.** 0.41

**Q.** With A47U A57G A64G as the variant, how does the self-cleavage read?
**A.** 0.17

**Q.** Which self-cleavage does the source give for U43C G63U U74G U80C here?
**A.** 1.11

**Q.** For A45G U66C U74A, which self-cleavage is on record?
**A.** 0.35

**Q.** Which self-cleavage does the source give for U43C A57G U69A U72C here?
**A.** 0.14

**Q.** With G46U A47U A56G U67C as the variant, how does the self-cleavage read?
**A.** 0

**Q.** With U43C A45G U72G as the variant, how does the self-cleavage read?
**A.** 0.65

**Q.** For A45U U48C U72C, which self-cleavage is on record?
**A.** 0.35

**Q.** For U48C U66C U74C, which self-cleavage is on record?
**A.** 0.33

**Q.** Which self-cleavage does the source give for A45U U51A U78A here?
**A.** 0.37

**Q.** For A47G U60C A64G A75G, which self-cleavage is on record?
**A.** 0.11

**Q.** With A45G U66A U72C as the variant, how does the self-cleavage read?
**A.** 0.41

**Q.** With A47G A65U U67A as the variant, how does the self-cleavage read?
**A.** 0.33

**Q.** Which self-cleavage does the source give for U43A U66C C68U here?
**A.** 0.37

**Q.** With U48C A56G A57G as the variant, how does the self-cleavage read?
**A.** 0.69

**Q.** For A47U U49C A65G, which self-cleavage is on record?
**A.** 0.1

**Q.** For U48C A57G A65G, which self-cleavage is on record?
**A.** 0.51

**Q.** For U48C A65G U66C A77C, which self-cleavage is on record?
**A.** 0.17

**Q.** For U43A U51C A56G U72C U74C, which self-cleavage is on record?
**A.** 0.9

**Q.** With U49A A65U U66C as the variant, how does the self-cleavage read?
**A.** 0.08

**Q.** Which self-cleavage does the source give for U49C A64U U66C U72C U78C here?
**A.** 0.09

**Q.** Which self-cleavage does the source give for U43C A56U U66G U74C U80C here?
**A.** 0.11

**Q.** With A45U G73A U80C as the variant, how does the self-cleavage read?
**A.** 1.26

**Q.** With U48C U66C U76A as the variant, how does the self-cleavage read?
**A.** 0.2

**Q.** Which self-cleavage does the source give for U43C A56U U72G here?
**A.** 0.38

**Q.** For A45U A57G U60A, which self-cleavage is on record?
**A.** 1.12

**Q.** With U48C U60C U66C U76A as the variant, how does the self-cleavage read?
**A.** 0.16

**Q.** With U49A A65G U67C as the variant, how does the self-cleavage read?
**A.** 0.38

**Q.** For U43C A57G A64G U72C, which self-cleavage is on record?
**A.** 0.32

**Q.** Which self-cleavage does the source give for U48A U72A A77U here?
**A.** 0.2

**Q.** For A45U U51A A77G, which self-cleavage is on record?
**A.** 0.22

**Q.** With A45G A47G U60A U66C U80C as the variant, how does the self-cleavage read?
**A.** 0.09

**Q.** For U48C A57G A64G A65U, which self-cleavage is on record?
**A.** 0.19

**Q.** Which self-cleavage does the source give for A45U U48C U69C here?
**A.** 0.15

**Q.** For A45U A56G A65G, which self-cleavage is on record?
**A.** 0.12

**Q.** For A45U U60A U67G U72A, which self-cleavage is on record?
**A.** 0.11

**Q.** For A47C U49C G55C U69A U78C, which self-cleavage is on record?
**A.** 0.14

**Q.** With A45G U51C U69C as the variant, how does the self-cleavage read?
**A.** 0.43

**Q.** For A45C G63A U72C, which self-cleavage is on record?
**A.** 0.23

**Q.** For A47G U51A U66C U80A, which self-cleavage is on record?
**A.** 0.11

**Q.** Which self-cleavage does the source give for U43A U60C G61C U72G here?
**A.** 0.25

**Q.** Which self-cleavage does the source give for U43C U58C U80C here?
**A.** 0.29

**Q.** With U48C C71U U72A U76A as the variant, how does the self-cleavage read?
**A.** 0.34

**Q.** With A47G A57G U78C as the variant, how does the self-cleavage read?
**A.** 0.47

**Q.** With U43C U60A U78A as the variant, how does the self-cleavage read?
**A.** 0.23

**Q.** Which self-cleavage does the source give for G46A U51G U69A here?
**A.** 0.21

**Q.** For U43C U58G U60A U67C, which self-cleavage is on record?
**A.** 0.07

**Q.** Which self-cleavage does the source give for C44A A56G C79U here?
**A.** 0.34

**Q.** For A47U A57G U58C, which self-cleavage is on record?
**A.** 0.25

**Q.** Which self-cleavage does the source give for U43C G52A A64U here?
**A.** 0.38

**Q.** For A45C U48C G53U U72C, which self-cleavage is on record?
**A.** 0.18

**Q.** Which self-cleavage does the source give for A45G A65U U66C here?
**A.** 0.2

**Q.** For U43C U48C U67A U74C, which self-cleavage is on record?
**A.** 0.06

**Q.** Which self-cleavage does the source give for U43C A64G U69C here?
**A.** 0.14

**Q.** Which self-cleavage does the source give for U43C U67A U74A A75G here?
**A.** 0.07

**Q.** For U48C U49C U66C, which self-cleavage is on record?
**A.** 0.19

**Q.** With A45C A64U U69C as the variant, how does the self-cleavage read?
**A.** 0.07

**Q.** Which self-cleavage does the source give for A45G A57G U76A here?
**A.** 0.67

**Q.** Which self-cleavage does the source give for U49A U60C U72C here?
**A.** 0.22

**Q.** Which self-cleavage does the source give for U48C U49C A75G here?
**A.** 0.13

**Q.** With A45U U67A U69C U72C A77U as the variant, how does the self-cleavage read?
**A.** 0.18

**Q.** With A47U G55A A57U A64G as the variant, how does the self-cleavage read?
**A.** 0.1

**Q.** With U43G C50U U74G as the variant, how does the self-cleavage read?
**A.** 0.12

**Q.** For G46C U60C A64G U74C U76C, which self-cleavage is on record?
**A.** 0.17

**Q.** For U49A U51A U78G, which self-cleavage is on record?
**A.** 0.3

**Q.** With U43G A56U U67A U80C as the variant, how does the self-cleavage read?
**A.** 0.15

**Q.** With A45G U60A U78C as the variant, how does the self-cleavage read?
**A.** 0.53

**Q.** Which self-cleavage does the source give for U43C U67A A75G here?
**A.** 0.1

**Q.** Which self-cleavage does the source give for U43C U60C C81G here?
**A.** 0.27

**Q.** With U43A U54G U60C U74A as the variant, how does the self-cleavage read?
**A.** 0.53

**Q.** Which self-cleavage does the source give for U43A U60C A77G here?
**A.** 0.72

**Q.** For A45U U69A U78C, which self-cleavage is on record?
**A.** 0.35
